{
  "source": "PubChem BioAssay AID2147",
  "about": "(National Center for Advancing Translational Sciences (NCATS), 2009)",
  "note": "Where “and” joins values, the source holds several entries; their conditions need not be identical. Identical values can stand only once. The whole screen tested about 230,000 compounds, of which about 3,600 (1.6%) were called active. Inconclusive results, whose numbers are uncertain, are shown with a selection of clear calls. Calls follow the shape of the dose curve; as a rule, active = well fitted inhibition curve with a large enough effect (not every such curve was filed as active); inconclusive = small, poorly fitted or top-dose-only effect, or another doubt; inactive = no such curve, though single readings can be large or run the other way. Potencies of inconclusive entries are doubtful fits and often do not repeat. Also: nearly all actives have a fitted effect of over 50% in size. Potency is read from the fitted curve at half-maximal effect; tags tell the direction and shape of the fitted curve.",
  "data": [
    {"molecular_target": "Lysine-specific demethylase 4E (Homo sapiens) (UniProt B2RXH2)", "sequence (B2RXH2 whole entry, looked up, the tested form may be a part)": "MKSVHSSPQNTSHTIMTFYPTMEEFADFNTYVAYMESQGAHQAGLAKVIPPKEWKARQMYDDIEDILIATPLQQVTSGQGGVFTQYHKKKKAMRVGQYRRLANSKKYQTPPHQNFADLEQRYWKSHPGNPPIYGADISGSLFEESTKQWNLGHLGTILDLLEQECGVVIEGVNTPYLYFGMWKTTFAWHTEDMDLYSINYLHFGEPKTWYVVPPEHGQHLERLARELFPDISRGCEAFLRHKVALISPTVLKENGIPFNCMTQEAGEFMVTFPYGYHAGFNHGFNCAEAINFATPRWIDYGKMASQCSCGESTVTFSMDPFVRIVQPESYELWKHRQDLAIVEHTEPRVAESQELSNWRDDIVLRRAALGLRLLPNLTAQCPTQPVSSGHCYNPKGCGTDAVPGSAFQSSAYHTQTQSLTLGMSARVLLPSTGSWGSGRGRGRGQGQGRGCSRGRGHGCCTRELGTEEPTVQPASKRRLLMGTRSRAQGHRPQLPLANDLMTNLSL", "assay": "qHTS Assay for Inhibitors of Human Jumonji Domain Containing 2E (JMJD2E)", "details": "JMJD2E catalytic domain, FDH-coupled NADH fluorescence (FDH is formaldehyde dehydrogenase); series mostly up to 57.1 µM", "values": [
      {"smiles": "CCCCCCCCC/C(=N\\O)c1ccccn1", "Potency": "inconclusive: 39.8 µM [inhibitor, single point]"},
      {"smiles": "N#Cc1c(-c2ccc(Br)cc2)cc(-c2cccnc2)nc1N", "Potency": "inconclusive: 37.7 µM [inhibitor, single point]"},
      {"smiles": "COc1ccc(/C=N/NC(=O)c2ccc3ccccc3c2)cc1OS(=O)(=O)c1ccc(NC(C)=O)cc1", "Potency": "inconclusive: 31.6 µM [inhibitor, single point]"},
      {"smiles": "Oc1ccc2ccccc2c1C=Nc1ccccc1-c1nc2ccccc2[nH]1", "Potency": "inconclusive: 25.1 µM [inhibitor, partial curve]"},
      {"smiles": "COc1cc2c(cc1NC(=O)CCCN1C(=O)CCC1=O)oc1ccccc12", "Potency": "inactive"},
      {"smiles": "CCNc1c(N)c(=O)oc2ccccc12", "Potency": "inconclusive: 31.6 µM [inhibitor, single point]"},
      {"smiles": "Cc1c(C(=O)N2CCCCC2)oc2ccc(S(=O)(=O)N3CC(C)CC(C)C3)cc12", "note": "(centres undefined)", "Potency": "inactive"},
      {"smiles": "FC(F)Oc1ccccc1NC(=S)Nc1cccnc1", "Potency": "inconclusive: 39.8 µM [inhibitor, single point]"},
      {"smiles": "COc1cc(OC)cc(C(=O)NNC(=O)c2ccccc2Br)c1", "Potency": "inactive"},
      {"smiles": "CCCN1C/C(=C/c2ccc3c(c2)OCO3)C(=O)/C(=C/c2ccc3c(c2)OCO3)C1", "Potency": "active: 10 µM"},
      {"smiles": "CCN(Cc1ccccc1)C(c1cc2cc(C)ccc2[nH]c1=O)c1nnnn1CCOC", "note": "(centres undefined)", "Potency": "inconclusive: 39.8 µM [inhibitor, single point]"},
      {"smiles": "O=C(Nc1cccc([N+](=O)[O-])c1)c1cccc(C(=O)Nc2cccc([N+](=O)[O-])c2)c1", "Potency": "inactive"},
      {"smiles": "NC(=O)C1=C[C@@H](c2ccc(Br)cc2)C[C@@H](OCCCCO)O1", "Potency": "inconclusive: 7.08 µM [inhibitor, partial curve]"},
      {"smiles": "O=c1oc(Nc2cccc(Cl)c2)nc2ccccc12", "Potency": "inconclusive: 28.2 µM [inhibitor, partial curve]"},
      {"smiles": "O=C(NCCc1ccccc1)c1ccc(-c2ccc(F)cc2)o1", "Potency": "inconclusive: 25.1 µM [inhibitor, partial curve]"},
      {"smiles": "N=c1c(S(=O)(=O)c2ccccc2)cc2c(=O)n3ccccc3nc2n1CC1CCCO1", "note": "(centres undefined)", "Potency": "inconclusive: 10 µM [inhibitor, partial curve]"},
      {"smiles": "Cc1ccc(N=Nc2ccc(N)cc2C)c(S(N)(=O)=O)c1", "Potency": "inconclusive: 35.5 µM [inhibitor, single point]"},
      {"smiles": "COc1ccccc1/C=C\\C=N\\n1c(C2CCCCC2)n[nH]c1=S", "Potency": "inconclusive: 17.8 µM [inhibitor, single point]"},
      {"smiles": "COc1ccc(-c2nc(C#N)c(NC(C)c3ccccc3)o2)cc1OC", "note": "(centres undefined)", "Potency": "inconclusive: 31.6 µM [inhibitor, partial curve]"},
      {"smiles": "Cc1ccc(-c2nnc(N)o2)cc1", "Potency": "inconclusive: 39.8 µM [inhibitor, single point]"},
      {"smiles": "Cn1c(N)c(C(=O)c2cc(-c3ccccn3)nc3ccccc23)c(=O)[nH]c1=O", "Potency": "inactive"},
      {"smiles": "S=C(Nc1ccc(Cl)cc1)Nc1ccc2cn[nH]c2c1", "Potency": "inconclusive: 28.2 µM [inhibitor, partial curve]"},
      {"smiles": "Cc1ccc(Cn2cccc(NC(=O)CCC3CCCC3)c2=O)cc1", "Potency": "inconclusive: 39.8 µM [inhibitor, single point]"},
      {"smiles": "CC(=O)Nc1ccc(/C=N/N2C(C)CCCC2C)cc1", "note": "(centres undefined)", "Potency": "inconclusive: 3.16 µM [inhibitor, partial curve]"},
      {"smiles": "CC[C@@H](C)C(NC(=O)OC(C)(C)C)c1cn([C@@H](Cc2cc3ccccc3[nH]2)C(=O)N2CCN(C(=O)OC(C)(C)C)CC2)nn1", "note": "(some centres undefined)", "Potency": "inactive"},
      {"smiles": "COCCCn1c(CCC(=O)O)ccc1-c1ccc(F)cc1", "Potency": "inconclusive: 28.2 µM [inhibitor, partial curve]"},
      {"smiles": "COc1ccc(C(=O)NCCc2nnc3ccc(SCC(=O)Nc4cc(C)on4)nn23)cc1", "Potency": "inconclusive: 20 µM [inhibitor, single point]"},
      {"smiles": "O=C(CCc1nc(-c2ccccc2)c(-c2ccccc2)o1)OCc1ccc(Cl)cc1", "Potency": "inconclusive: 35.5 µM [inhibitor, single point]"},
      {"smiles": "CCOc1ccc(N=C(C)c2ccccc2O)cc1", "Potency": "inconclusive: 39.8 µM [inhibitor, single point]"},
      {"smiles": "N#CC1CC(c2ccccc2)Nc2cc(Cl)ccc2N1", "note": "(centres undefined)", "Potency": "inconclusive: 14.1 µM [inhibitor, partial curve]"},
      {"smiles": "CN(C)/C=N/c1nc2nccc(-c3ccccc3)n2n1", "Potency": "inconclusive: 12.6 µM [inhibitor, partial curve]"},
      {"smiles": "Cc1cc(C)nc(NS(=O)(=O)c2cccs2)c1", "Potency": "inconclusive: 25.1 µM [inhibitor, single point]"},
      {"smiles": "Brc1ccc(-c2cn3ccccc3n2)cc1", "Potency": "inconclusive: 35.5 µM [inhibitor, single point]"},
      {"smiles": "COc1ccc2[nH]cc(CCn3ccc(=O)c(C)c3C)c2c1", "Potency": "inactive"},
      {"smiles": "Oc1ccc(/C=N/Nc2ncnc3c2ncn3Cc2ccccc2)cc1O", "Potency": "active: 10 µM"},
      {"smiles": "N#CCC(=N)N1CCN(c2ccc(Cl)cc2)CC1", "Potency": "inconclusive: 17.8 µM [inhibitor, partial curve]"},
      {"smiles": "O=C(COC(=O)c1ccc[nH]c1=O)NCC1CCCO1", "note": "(centres undefined)", "Potency": "inconclusive: 39.8 µM [inhibitor, single point]"},
      {"smiles": "Fc1cccc(Cl)c1CNc1ccc(N2CCCC2)cc1", "Potency": "active: 11.2 µM"},
      {"smiles": "CC1CCC2(CC1)Nc1ccccc1C(=O)N2c1ccccc1", "note": "(centres undefined)", "Potency": "inconclusive: 28.2 µM [inhibitor, partial curve]"},
      {"smiles": "O=C(N/N=C\\C=C\\c1ccc2c(c1)OCO2)c1cccnc1", "Potency": "inconclusive: 28.2 µM [inhibitor, single point]"},
      {"smiles": "CCCCNC(=S)NNC(=O)c1nn(C)cc1Cl", "Potency": "inconclusive: 39.8 µM [inhibitor, single point]"},
      {"smiles": "CSCC(C)N1CCC(CO)(CCCc2ccccc2)CC1", "note": "(centres undefined)", "Potency": "inconclusive: 1.12 µM [inhibitor, full curve]"},
      {"smiles": "Cc1ccc(S(=O)(=O)Nc2ccc3ccccc3n2)cc1", "Potency": "inconclusive: 35.5 µM [inhibitor, single point]"},
      {"smiles": "CCOc1ccccc1Nc1nc(-c2sc(C)nc2C)cs1", "Potency": "inconclusive: 35.5 µM [inhibitor, single point]"},
      {"smiles": "Cc1cc(C(=O)N2CCCC(C(=O)c3ccc4ccccc4c3)C2)nn1C", "note": "(centres undefined)", "Potency": "inconclusive: 39.8 µM [inhibitor, single point]"},
      {"smiles": "O=C(Nc1cc([N+](=O)[O-])ccc1N1CCOCC1)c1ccco1", "Potency": "inactive"},
      {"smiles": "CCOC(=O)COc1cc(Br)c(/C=N/Nc2ccccc2)cc1OC", "Potency": "inactive"},
      {"smiles": "O=C(O)c1cscn1", "Potency": "inconclusive: 28.2 µM [inhibitor, single point]"},
      {"smiles": "O=C(NCC1CCCO1)c1cc(-c2ccc(Cl)cc2Cl)on1", "note": "(centres undefined)", "Potency": "inactive"},
      {"smiles": "O=C(O)/C=C/C(=O)NC1CC1", "Potency": "inactive"},
      {"smiles": "NC1=NC(c2ccc(F)cc2)n2c(nc3ccccc32)N1", "note": "(centres undefined)", "Potency": "inactive"},
      {"smiles": "CCOC(=O)c1cc(-c2ccc(C#N)cc2)nc2c1c(C)nn2CCC#N", "Potency": "inconclusive: 3.16 µM [inhibitor, partial curve]"},
      {"smiles": "CN(C)c1ccc(N/C=C/C(=O)c2ccc(F)cc2)cc1", "Potency": "active: 12.6 µM"},
      {"smiles": "COc1ccc(C(=O)c2coc3c2C(=O)C(=O)c2ccccc2-3)cc1", "Potency": "inconclusive: 0.891 µM [inhibitor, full curve]"},
      {"smiles": "CCC(Sc1nc2ccccc2c(=O)[nH]1)C(=O)Nc1ccc(C(C)=O)cc1", "note": "(centres undefined)", "Potency": "inactive"},
      {"smiles": "Cn1cccc1/C=N/n1c(-c2ccc(C(C)(C)C)cc2)n[nH]c1=S", "Potency": "inactive"},
      {"smiles": "CCN(CC)S(=O)(=O)c1cc(-c2nnc(-c3ccc(Br)cc3)o2)ccc1Cl", "Potency": "inconclusive: 28.2 µM [inhibitor, single point]"},
      {"smiles": "NC(N)=N/N=C/c1ccc(OCc2ccc(Cl)cc2)cc1", "Potency": "inconclusive: 35.5 µM [inhibitor, single point]"},
      {"smiles": "COCc1nnc(NS(=O)(=O)c2ccc(C)cc2)s1", "Potency": "inactive"},
      {"smiles": "C=CCNCCOCCSc1ccc(Cl)cc1", "Potency": "inconclusive: 28.2 µM [inhibitor, single point]"},
      {"smiles": "Cc1cc(/C=C2\\Cc3ccccc3C2=O)c(C)n1-c1ccccc1", "Potency": "inconclusive: 28.2 µM [inhibitor, partial curve]"},
      {"smiles": "CC(C)c1cc(C(=O)N2CCCC(CCC(=O)N3CCN(c4ccccn4)CC3)C2)no1", "note": "(centres undefined)", "Potency": "inconclusive: 35.5 µM [inhibitor, single point]"},
      {"smiles": "Cc1cc(=O)oc2cc(OCc3nnc(-c4ccccc4Br)o3)ccc12", "Potency": "inconclusive: 25.1 µM [inhibitor, partial curve]"},
      {"smiles": "COCCCNC(=O)CCc1ccccc1", "Potency": "inconclusive: 22.4 µM [inhibitor, single point]"},
      {"smiles": "S=c1[nH]nc(-c2ccccn2)n1/N=C/c1ccccc1", "Potency": "inconclusive: 39.8 µM [inhibitor, single point]"},
      {"smiles": "O=C(Nc1cc(C(=O)Nc2ccc(S(=O)(=O)O)cc2S(=O)(=O)O)cc(C(=O)Nc2ccc(S(=O)(=O)O)cc2S(=O)(=O)O)c1)Nc1cc(C(=O)Nc2ccc(S(=O)(=O)O)cc2S(=O)(=O)O)cc(C(=O)Nc2ccc(S(=O)(=O)O)cc2S(=O)(=O)O)c1", "Potency": "inactive and inconclusive: 1.41 µM [inhibitor, partial curve]"},
      {"smiles": "O=C(O)CC1S/C(=N/N=C/C=C/c2ccccc2[N+](=O)[O-])NC1=O", "note": "(centres undefined)", "Potency": "inconclusive: 31.6 µM [inhibitor, single point]"},
      {"smiles": "CN(C)C(CNC(C(=O)Nc1ccc([N+](=O)[O-])cc1Br)c1ccccc1)c1ccccc1", "note": "(centres undefined)", "Potency": "inconclusive: 31.6 µM [inhibitor, single point]"},
      {"smiles": "CCn1c(=O)cc(SCC(=O)NCCN2CCN(Cc3ccccc3)CC2)c2ccccc21", "Potency": "inconclusive: 39.8 µM [inhibitor, single point]"}
    ]}
  ]
}
